In PMC4336329 (PLoS ONE, 2015):
Among all 310,000 compounds or so, about 2,200 (0.71%) showed an effect of 50% or more. The effect is printed as a negative number. Some of the results follow.

target: human ether-à-go-go-related gene (hERG) potassium channel (human, UniProt Q12809); test: primary screen, population patch clamp on CHO cells stably expressing hERG
Sequence (Q12809 whole entry, looked up): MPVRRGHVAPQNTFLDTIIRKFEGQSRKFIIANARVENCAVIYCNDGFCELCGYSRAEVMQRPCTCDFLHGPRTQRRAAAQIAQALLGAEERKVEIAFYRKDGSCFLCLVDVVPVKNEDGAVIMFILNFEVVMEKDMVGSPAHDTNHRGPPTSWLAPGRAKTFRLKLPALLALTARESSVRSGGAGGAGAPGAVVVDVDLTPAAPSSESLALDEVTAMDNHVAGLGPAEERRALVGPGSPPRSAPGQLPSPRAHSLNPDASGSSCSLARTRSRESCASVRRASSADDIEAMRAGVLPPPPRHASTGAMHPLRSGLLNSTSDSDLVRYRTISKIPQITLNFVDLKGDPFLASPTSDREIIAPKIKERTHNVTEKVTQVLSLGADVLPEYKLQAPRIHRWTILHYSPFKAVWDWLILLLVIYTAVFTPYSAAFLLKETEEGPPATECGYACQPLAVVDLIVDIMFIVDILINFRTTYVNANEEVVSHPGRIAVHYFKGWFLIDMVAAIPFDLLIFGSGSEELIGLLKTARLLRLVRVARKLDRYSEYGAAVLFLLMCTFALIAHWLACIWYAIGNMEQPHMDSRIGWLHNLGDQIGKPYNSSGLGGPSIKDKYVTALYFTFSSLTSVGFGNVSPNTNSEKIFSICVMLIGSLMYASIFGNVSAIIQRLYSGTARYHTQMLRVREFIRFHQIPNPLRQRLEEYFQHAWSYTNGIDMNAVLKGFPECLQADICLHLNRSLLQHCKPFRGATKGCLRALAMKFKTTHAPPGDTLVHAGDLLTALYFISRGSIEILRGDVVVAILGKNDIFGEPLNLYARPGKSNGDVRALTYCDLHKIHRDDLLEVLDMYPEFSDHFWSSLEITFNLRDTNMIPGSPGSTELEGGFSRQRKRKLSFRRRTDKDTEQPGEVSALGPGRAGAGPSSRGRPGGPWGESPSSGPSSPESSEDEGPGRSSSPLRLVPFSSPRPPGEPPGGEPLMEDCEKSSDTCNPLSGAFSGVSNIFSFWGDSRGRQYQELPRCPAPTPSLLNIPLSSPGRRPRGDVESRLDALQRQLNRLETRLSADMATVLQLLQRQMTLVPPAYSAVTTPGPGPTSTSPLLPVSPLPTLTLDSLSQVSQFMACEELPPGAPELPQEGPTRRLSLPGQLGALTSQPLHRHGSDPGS

Compared with `COc1cc(NC(=O)CSc2nc(=O)n(CCCN3CCOCC3)c3c2CCC3)cc(OC)c1`, `COc1ccc(C2/C(=C(/O)c3ccc(F)cc3)C(=O)C(=O)N2CCCN2CCOCC2)cc1OC` (stereo not drawn) is higher in “hERG current change (%, negative = inhibition) at 1uM” value: -1.74% for the first, 13% for the second.

First: CCC(=O)Nc1sc2c(c1C(=O)N(C)C)CCCCC2
Second: CCOC(=O)c1c(NC(=S)Nc2ccccc2)sc2c1CCCCC2
The “hERG current change (%, negative = inhibition) at 1uM” value of the first is higher: 15.4% for the first, 12.8% for the second.

First: CCOP(=O)(c1ccccc1)C(O)c1ccccc1 (stereo not drawn)
Second: O=C(OC(c1ccccc1)c1nccc2ccccc12)c1cccc([N+](=O)[O-])c1 (stereo not drawn)
The “hERG current change (%, negative = inhibition) at 1uM” value of the first is higher: 21.5% for the first, 12.7% for the second.

First: CC(C)(C)NC(=O)C(c1cccs1)N(CC1CCCO1)C(=O)c1ccc(-c2ccccc2)[nH]1 (stereo not drawn)
Second: O=C(NCc1ccccc1)C(c1ccc(F)cc1)N(Cc1cccs1)C(=O)c1cnccn1 (stereo not drawn)
The “hERG current change (%, negative = inhibition) at 1uM” value of the first is higher: 19.9% for the first, 8.73% for the second.

Compared with `c1ccc(C2CC(c3cccs3)Nc3nnnn32)cc1` (stereo not drawn), `COCC(=O)Nc1nc2n(n1)C(c1ccccc1)CC(c1ccc(OC)cc1)N2` (stereo not drawn) is lower in “hERG current change (%, negative = inhibition) at 1uM” value: 0.531% for the first, -0.0279% for the second.

Going from `O=C(CCCn1c(=S)[nH]c2ccccc2c1=O)NCCSCc1ccccc1` to `O=C(CCCc1c[nH]c2ccccc12)Nc1ccc2ccccc2c1`, the “hERG current change (%, negative = inhibition) at 1uM” value rises from 0.956% to 12.9%.

First: CC1CN(S(=O)(=O)c2cccc(C(F)(F)F)c2)CN1C(=O)N1CCOCC1 (stereo not drawn)
Second: CCOC(=O)C(=NCCCN1CCOCC1)NNc1cccc(C(F)(F)F)c1
The “hERG current change (%, negative = inhibition) at 1uM” value of the first is higher: 12% for the first, 10.4% for the second.

Compared with `CC1Cc2nc(SCC(=O)NCc3ccco3)n(Cc3ccccc3)c(=O)c2S1` (stereo not drawn), `N=c1c(C(=O)NCC2CCCO2)cc2c(=O)n3ccccc3nc2n1Cc1ccccc1` (stereo not drawn) is lower in “hERG current change (%, negative = inhibition) at 1uM” value: 0.486% for the first, -72.3% for the second.

First: CC(=O)Nc1ccc(OCC(O)Cn2nc(C)nc2C)cc1 (stereo not drawn)
Second: CC(=O)Nc1ccc(NC(=O)CN(c2cccc(C(C)=O)c2)S(C)(=O)=O)cc1
The “hERG current change (%, negative = inhibition) at 1uM” value of the first is higher: 16.7% for the first, 5.75% for the second.

First: Cc1cc(=O)oc2cc(OCC(=O)OCC(=O)N(CCC#N)c3ccccc3)ccc12
Second: COc1ccc2c(COC(=O)CCS(=O)(=O)c3ccccc3)cc(=O)oc2c1
The “hERG current change (%, negative = inhibition) at 1uM” value of the first is higher: 13.6% for the first, -5.66% for the second.

First: CCOC(=O)C(C(=O)OCC)C(C)C#CCN1CCCCC1 (stereo not drawn)
Second: Cc1ccc(S(=O)(=O)N2CCCCC2)cc1NC(=O)COC(=O)c1ccccc1F
The “hERG current change (%, negative = inhibition) at 1uM” value of the first is higher: 4.43% for the first, 3% for the second.

Going from `COc1cc2c(C(=O)N(C)c3ccc(F)cc3)cn(C)c(=O)c2cc1OC` to `COc1ccc(COC(=O)C2=C(C)NC(=O)NC2c2cccc(OC)c2OC)cc1` (stereo not drawn), the “hERG current change (%, negative = inhibition) at 1uM” value falls from 16.1% to 9.89%.

Going from `Cc1cc(S(=O)(=O)Nc2ccc(C(=O)NCC(c3ccco3)N(C)C)cc2)ccc1F` (stereo not drawn) to `CC(c1ccco1)N(C(=O)c1ccccc1NS(=O)(=O)c1cc([N+](=O)[O-])ccc1Cl)c1ccccn1` (stereo not drawn), the “hERG current change (%, negative = inhibition) at 1uM” value rises from -0.374% to 18%.

Going from `CCN(CC(=O)NCCN1CCOCC1)S(=O)(=O)c1ccc(F)cc1` to `Cc1ccc(S(=O)(=O)N(C)c2ccc(C(=O)N3CCOCC3)cc2)cc1`, the “hERG current change (%, negative = inhibition) at 1uM” value rises from 9.38% to 12.6%.

Going from `Cc1nc2c(c(N3CCOCC3)n1)OCC(=O)N2` to `N=c1ncn(CC(O)CN2CCOCC2)c2nc(N3CCOCC3)[nH]c12` (stereo not drawn), the “hERG current change (%, negative = inhibition) at 1uM” value falls from 3.44% to 0.764%.

Compared with `CCOC(=O)CNC(=O)CSc1ccc(-c2nc3ccccc3[nH]2)cn1`, `CCOC(=O)Cc1csc(NC(=O)CCS(=O)(=O)Cc2ccccc2)n1` is higher in “hERG current change (%, negative = inhibition) at 1uM” value: 4.05% for the first, 13.6% for the second.

Compared with `COc1ccc(Cl)cc1NC(=O)CN(C)C1CCCCC1`, `Cc1ccc(-c2nnc(SCC(=O)NC3CCCC3)n2C)cc1` is higher in “hERG current change (%, negative = inhibition) at 1uM” value: -4.31% for the first, 16.3% for the second.

Compared with `O=C(CSc1ccc(-c2ccco2)nn1)c1cccc([N+](=O)[O-])c1`, `COc1ccccc1C(=O)CSc1ccccn1` is lower in “hERG current change (%, negative = inhibition) at 1uM” value: 4.71% for the first, 3.31% for the second.

Going from `Cc1c(O)ccc2c(=O)c(Oc3ccccc3)coc12` to `COc1ccc(NCc2cc3ccccc3[nH]c2=O)cc1`, the “hERG current change (%, negative = inhibition) at 1uM” value falls from 17.4% to 10.1%.

Going from `COc1ccccc1OCCOCCOc1ccc(C)cc1[N+](=O)[O-]` to `COC(=O)c1ccc(-n2nnnc2SCc2ccccc2OC)cc1`, the “hERG current change (%, negative = inhibition) at 1uM” value rises from 6.27% to 13.7%.

Compared with `CCOC(=O)c1c(C)[nH]c(C(=O)N2CCc3cc(OC)c(OC)cc3C2)c1C`, `COc1ccc(OC)c2c(C)cc(N3CCN(C(=O)c4ccc(Cl)cc4)CC3)nc12` is higher in “hERG current change (%, negative = inhibition) at 1uM” value: 1.03% for the first, 9.55% for the second.

Compared with `O=S(=O)(c1cccc(S(=O)(=O)N2CCCC2)c1)c1cccc(S(=O)(=O)N2CCCC2)c1`, `COCCNC(=O)CN1C(=O)CSc2cc(S(=O)(=O)N3CCCCCC3)ccc21` is higher in “hERG current change (%, negative = inhibition) at 1uM” value: 2.77% for the first, 9.78% for the second.

Going from `Clc1ccccc1N1CCN(Cc2c[nH]c3ccccc23)CC1` to `O=C(NC(=S)Nc1ccc(N2CCOCC2)c(Cl)c1)C(c1ccccc1)c1ccccc1`, the “hERG current change (%, negative = inhibition) at 1uM” value falls from 7.93% to 6.04%.

Going from `O=C(Nc1cccc2ccccc12)c1ccccc1NS(=O)(=O)c1cccc2cccnc12` to `COc1ccc(C(=O)NC(NC(=O)c2ccc(OC)cc2)c2ccccc2F)cc1`, the “hERG current change (%, negative = inhibition) at 1uM” value rises from 2.69% to 8.42%.

First: Nc1c(N(CCO)C(=O)COc2ccc(Cl)cc2)c(=O)[nH]c(=O)n1Cc1ccccc1
Second: COc1ccc(-c2cc(C(=O)OCC(=O)N3CCCC3)c3ccccc3n2)cc1
The “hERG current change (%, negative = inhibition) at 1uM” value of the first is higher: 4.25% for the first, 1.85% for the second.

Compared with `CCOc1cc(C)c(S(=O)(=O)NCCCn2ccnc2)cc1C`, `Cc1ccccc1S(=O)(=O)NCc1ccc(N2CCN(C)CC2)cc1` is lower in “hERG current change (%, negative = inhibition) at 1uM” value: 13.7% for the first, 7.99% for the second.

First: COC(=O)CCc1nc2c(C#N)c(-c3ccc(Cl)cc3)ccn2n1
Second: COC(=O)CCCSc1nccn1-c1ccccc1
The “hERG current change (%, negative = inhibition) at 1uM” value of the first is higher: 3.54% for the first, -11% for the second.

Compared with `Cc1nonc1C(=O)N/N=C/c1cc2c(cc1Br)OCO2`, `COc1ccc(/C=N/NC(=O)c2ccc3nc[nH]c3c2)c(OC)c1OC` is lower in “hERG current change (%, negative = inhibition) at 1uM” value: 13.2% for the first, 12.2% for the second.

Going from `COc1ccccc1NC(=O)Cn1cnc2sc(C(=O)Nc3ccc(OC)c(OC)c3)c(C)c2c1=O` to `COc1ccc(CN2CCNC(=O)C2CC(=O)NCc2cccc(C)n2)c(OC)c1` (stereo not drawn), the “hERG current change (%, negative = inhibition) at 1uM” value falls from 34.4% to 6.45%.

Compared with `Cn1c(=O)c2c(nc(SCCN3CCOCC3)n2Cc2ccccc2)n(C)c1=O`, `COc1ccc(-c2c3c(=O)n(C)c(=O)n(C)c3cn2C2CCCCC2)cc1` is higher in “hERG current change (%, negative = inhibition) at 1uM” value: -5.7% for the first, 2.7% for the second.

Going from `Cc1cccc(N2CCN(C(=O)Cn3nc(C)n4cccc4c3=O)CC2C)c1` (stereo not drawn) to `Cc1cccc(-c2ocnc2C(=O)N2CCN(C(=O)c3cccs3)CC2)c1`, the “hERG current change (%, negative = inhibition) at 1uM” value rises from 12% to 14.8%.

Compared with `O=C(O)CSCNC(=O)C12CC3CC(CC(C3)C1)C2`, `O=C(NC1CCCCC1)c1ccccc1NC(=S)NC(=O)C1CCC1` is higher in “hERG current change (%, negative = inhibition) at 1uM” value: -0.117% for the first, 1.35% for the second.

Going from `Cc1nc2ncnn2c(N2CCC(C(=O)NC3CCCC3)CC2)c1Cc1ccccc1` to `Cc1ccccc1N(C(=O)c1snc(C(N)=O)c1N)C(C(=O)NC1CCCCC1)c1ccc(O)cc1` (stereo not drawn), the “hERG current change (%, negative = inhibition) at 1uM” value rises from -28.4% to 12.3%.

Compared with `Cc1ccc(S(=O)(=O)Nc2cc(C)c(O)c(Sc3n[nH]c(C)n3)c2)cc1`, `CC1C(=O)N2CCCc3cc(NS(=O)(=O)c4ccc([N+](=O)[O-])cc4)cc1c32` (stereo not drawn) is lower in “hERG current change (%, negative = inhibition) at 1uM” value: 8.18% for the first, 3.74% for the second.

Going from `Cc1c(C(=O)N2CCCC2)sc(NC(=O)c2cccc(Cl)c2)c1C#N` to `NC(=O)c1c(NC(=O)c2ccncc2)sc2c1CCCC2`, the “hERG current change (%, negative = inhibition) at 1uM” value falls from 18.8% to 10.8%.

Going from `CC(=O)c1cccc(OCc2cc(C(=O)N(C)CCc3cnn(C)c3)no2)c1` to `Cc1cc(C(=O)COC(=O)[C@H](C)NC(=O)c2ccco2)c(C)n1Cc1ccco1`, the “hERG current change (%, negative = inhibition) at 1uM” value falls from 14.2% to 5.95%.

Compared with `CCCCc1nc2cc(C(=O)N3CCC(OC)CC3)ccc2o1`, `O=C(c1ccc(Cl)cc1)N1CCCOC1` is higher in “hERG current change (%, negative = inhibition) at 1uM” value: 3.01% for the first, 13.4% for the second.

Going from `c1ccc(CCCNCC2COc3ccccc3O2)cc1` (stereo not drawn) to `S=c1[nH]nc(Cn2nnc3ccccc32)n1-c1ccccc1`, the “hERG current change (%, negative = inhibition) at 1uM” value rises from 0.427% to 14.9%.

Compared with `Oc1ccc(N=Nc2ccc(Br)cc2)c(O)c1`, `O=c1oc2ccccc2c(Nc2ccc(Cl)cc2)c1[N+](=O)[O-]` is higher in “hERG current change (%, negative = inhibition) at 1uM” value: 9.69% for the first, 12.7% for the second.

Going from `COc1ccc(C(=O)N2CCN(c3ccc(NC(=O)c4cccnc4)cc3)CC2)cc1` to `O=C(Nc1ccc(N2CCN(C(=O)c3ccccc3)CC2)cc1)c1cccnc1`, the “hERG current change (%, negative = inhibition) at 1uM” value rises from -13.7% to 11%.

Going from `Br.CC(=O)N1c2ccccc2C2(O)N=C(C)SC12` (stereo not drawn) to `Cc1nnc(NC(=O)CCCOc2ccccc2)s1`, the “hERG current change (%, negative = inhibition) at 1uM” value falls from 15.9% to 8.42%.

Compared with `Cn1cccc1/C=C1/C(=O)NC(=S)N(Cc2ccc(F)cc2)C1=O`, `COC(=O)[C@H](Cc1c[nH]c2ccccc12)NC(=O)NCc1ccc(OC)cc1` is higher in “hERG current change (%, negative = inhibition) at 1uM” value: -2.42% for the first, 10.8% for the second.

Going from `Cc1cc(C)c2c(n1)nn1c(N3CCN(c4ccccc4C)CC3)cc(C)nc21` to `O=C(NCc1ccco1)/C(=C/c1ccc(C(F)(F)F)cc1)c1nc2ccccc2[nH]1`, the “hERG current change (%, negative = inhibition) at 1uM” value falls from 10.9% to 10.6%.

`NC(=O)c1ccccc1OCC(=O)O` was tested, and the “hERG current change (%, negative = inhibition) at 1uM” value was 3.73%.
